# Assay results: a collection of fitness landscapes (doi:10.1016/j.celrep.2020.107928)
# Over roughly 81,000 sequences, “one-hybrid fitness for binding parS DNA” has its median near -0.17; the highest 2% begin near 0.51. This is one part of the list.
# B1: Caulobacter ParB omega fusion; a variant is named by its letters at X, in order, B8GW30 (parent)
# chain: MESVVVGEPGMSEGRRGLGRGLSALLGEVDAAPAQAPGEQLGGSREAPIEILQRNPDQPRRTFREEDLEDLSNSIREKGVLQPILVRPSPDTAGEYQIVAGERAWRAAQRAGLKTVPIMVRELDDLAVLEIGIIENVQRADLNVLEEALSYKVLMEKFERTQENIAQTIGKSXSHVANXMRLLXLPDEVQSYLVSGELTAXHARAIAAAADPVALAKQIIEGGLSVRETEALARKAPNLSAGKSKGGRPPRVKDTDTQALESDLSSVLGLDVSIDHRGSTGTLTITYATLEQLDDLCNRLTRGI
# Variants of: B1
# Test: one-hybrid fitness for binding parS DNA (scaled: cognate 1, non-cognate 0); higher = stronger binding
# Details: with parS DNA site
# How it was run: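 Values were rescaled so that cognate is 1 and non-cognate is 0. Each is a fitness, the log change in a variant's read ratio to wild type from Illumina reads of plasmids before and after selection, with three replicate libraries pooled and variants under 10 reads dropped. Selection of the Caulobacter ParB libraries, four specificity codons randomised, used E. coli USO with a HIS3 reporter, site 19 bp from the promoter, on M9-minus-histidine with 0.1 mM IPTG and 5 mM 3-AT for 48 hours at 37°C.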
row,Variant,one-hybrid fitness for binding parS DNA
1,WAVR,≤ 0.2
2,LGPA,≤ 0.2
3,DCNM,≤ 0.2
4,SDPN,≤ 0.2
5,GMAE,≤ 0.2
6,FNNR,≤ 0.2
7,TRTE,≤ 0.2
8,PAEV,≤ 0.2
9,PRCD,≤ 0.2
10,RKGR,≤ 0.2
11,RMDI,≤ 0.2
12,GRNT,≤ 0.2
13,RGYK,≤ 0.2
14,HNSY,≤ 0.2
15,YAGM,≤ 0.2
16,NVKS,≤ 0.2
17,FSGF,≤ 0.2
18,RNAM,0.243
19,FGAS,≤ 0.2
20,GWSC,≤ 0.2
21,QLSG,≤ 0.2
22,STEC,≤ 0.2
23,ADQL,≤ 0.2
24,LQIT,≤ 0.2

row,Variant,one-hybrid fitness for binding parS DNA
1,DVAM,≤ 0.2
2,VGFG,≤ 0.2
3,CTPY,≤ 0.2
4,EMRT,≤ 0.2
5,PTVS,≤ 0.2
6,AEPR,≤ 0.2
7,NVHN,≤ 0.2
8,NHPD,≤ 0.2
9,TPHH,≤ 0.2
10,FPTS,≤ 0.2
11,STKK,≤ 0.2
12,AVTC,≤ 0.2
13,LVSG,≤ 0.2
14,YGTV,≤ 0.2
15,QTWK,≤ 0.2
16,RGRE,≤ 0.2
17,QCTV,≤ 0.2
18,TTYM,≤ 0.2
19,YPDI,≤ 0.2
20,VTMG,≤ 0.2
21,NTQL,≤ 0.2
22,YTNL,≤ 0.2
23,WVLH,≤ 0.2
24,VGWR,≤ 0.2

row,Variant,one-hybrid fitness for binding parS DNA
1,HRYP,≤ 0.2
2,EGES,≤ 0.2
3,YSRY,≤ 0.2
4,KLGS,≤ 0.2
5,DYPS,≤ 0.2
6,VVTP,≤ 0.2
7,AVTG,≤ 0.2
8,SHCG,≤ 0.2
9,HQEC,≤ 0.2
10,PHAG,≤ 0.2
11,ANTF,≤ 0.2
12,LCHS,≤ 0.2
13,QPMA,≤ 0.2
14,LLPI,≤ 0.2
15,TDFK,≤ 0.2
16,FYSR,≤ 0.2
17,RIPN,≤ 0.2
18,LKFG,≤ 0.2
19,VALT,≤ 0.2
20,YAMW,≤ 0.2
21,KYLM,≤ 0.2
22,EHHT,≤ 0.2
23,FVYR,≤ 0.2
24,QKCY,≤ 0.2

row,Variant,one-hybrid fitness for binding parS DNA
1,TKDR,≤ 0.2
2,VNHA,0.272
3,DCWL,≤ 0.2
4,RGSA,0.399
5,RGRY,0.413
6,HVTG,≤ 0.2
7,DYYC,≤ 0.2
8,DHHG,≤ 0.2
9,TIRV,≤ 0.2
10,TMGS,≤ 0.2
11,NEQA,≤ 0.2
12,FGER,≤ 0.2
13,AGPR,≤ 0.2
14,QSRC,≤ 0.2
15,RPQT,≤ 0.2
16,ARPC,≤ 0.2
17,QRKI,≤ 0.2
18,RFDP,≤ 0.2
19,VMPM,≤ 0.2
20,PTFA,≤ 0.2
21,FIVD,≤ 0.2
22,QRCW,≤ 0.2
23,QLHY,≤ 0.2
24,VPVI,≤ 0.2

row,Variant,one-hybrid fitness for binding parS DNA
1,FCEG,≤ 0.2
2,PFKS,≤ 0.2
3,IPRT,≤ 0.2
4,PYET,≤ 0.2
5,KFVV,≤ 0.2
6,DGAI,≤ 0.2
7,ICAC,≤ 0.2
8,QCYP,≤ 0.2
9,EGPS,≤ 0.2
10,LTQV,≤ 0.2
11,GLSL,≤ 0.2
12,RCIP,0.228
13,WCRT,≤ 0.2
14,AYWG,≤ 0.2
15,MWSL,≤ 0.2
16,LLKA,≤ 0.2
17,CQGS,≤ 0.2
18,SLWM,≤ 0.2
19,TPVD,≤ 0.2
20,VTGR,≤ 0.2
21,DKLQ,≤ 0.2
22,NVCD,≤ 0.2
23,RIKA,0.745
24,PERV,≤ 0.2

row,Variant,one-hybrid fitness for binding parS DNA
1,TVNT,≤ 0.2
2,QMRI,≤ 0.2
3,LFDC,≤ 0.2
4,SIGT,≤ 0.2
5,NCPD,≤ 0.2
6,TYAG,≤ 0.2
7,SLSC,≤ 0.2
8,PSHV,≤ 0.2
9,RAVD,≤ 0.2
10,DIYP,≤ 0.2
11,RMVG,0.971
12,LPSC,≤ 0.2
13,TRWT,≤ 0.2
14,QKFW,≤ 0.2
15,MVKR,≤ 0.2
16,NNGD,≤ 0.2
17,ESKC,≤ 0.2
18,ARLY,≤ 0.2
19,HRGA,≤ 0.2
20,NTKW,≤ 0.2
21,LNMG,≤ 0.2
22,EHIS,≤ 0.2
23,RQQQ,≤ 0.2
24,ADQN,≤ 0.2

row,Variant,one-hybrid fitness for binding parS DNA
1,DRAQ,≤ 0.2
2,IWNR,≤ 0.2
3,EVMC,≤ 0.2
4,RFAR,≤ 0.2
5,RLVS,1.03
6,QMPY,≤ 0.2
7,IYRC,≤ 0.2
8,CDPT,≤ 0.2
9,YTNT,≤ 0.2
10,TRCS,≤ 0.2
11,MRVN,≤ 0.2
12,GSAH,≤ 0.2
13,YLSF,≤ 0.2
14,VRYQ,≤ 0.2
15,QQDA,≤ 0.2
16,RMMM,0.311
17,QHGY,≤ 0.2
18,AWIT,≤ 0.2
19,PSIR,≤ 0.2
20,LEYC,≤ 0.2
21,PKCY,≤ 0.2
22,QAYF,≤ 0.2
23,WIES,≤ 0.2
24,EPTD,≤ 0.2

row,Variant,one-hybrid fitness for binding parS DNA
1,CSPG,≤ 0.2
2,LLTR,≤ 0.2
3,QDPW,≤ 0.2
4,SLVG,≤ 0.2
5,NLLL,≤ 0.2
6,RPHA,≤ 0.2
7,ARTW,≤ 0.2
8,HFFS,≤ 0.2
9,YFCG,≤ 0.2
10,PVMM,≤ 0.2
11,QHKP,≤ 0.2
12,RSHT,0.876
13,PREG,≤ 0.2
14,NVAE,≤ 0.2
15,LAQM,≤ 0.2
16,HIVR,≤ 0.2
17,EQTC,≤ 0.2
18,CDHS,≤ 0.2
19,SPIE,≤ 0.2
20,DANC,≤ 0.2
21,IRTA,≤ 0.2
22,PASW,≤ 0.2
23,NADL,≤ 0.2
24,RGIH,≤ 0.2

row,Variant,one-hybrid fitness for binding parS DNA
1,SYPV,≤ 0.2
2,QCSC,≤ 0.2
3,LKVD,≤ 0.2
4,FVKE,≤ 0.2
5,LHEW,≤ 0.2
6,YRPL,≤ 0.2
7,NACC,≤ 0.2
8,TSSP,≤ 0.2
9,SYMS,≤ 0.2
10,TYLE,≤ 0.2
11,TYNF,≤ 0.2
12,ETRD,≤ 0.2
13,NDMF,≤ 0.2
14,FAFN,≤ 0.2
15,SHPY,≤ 0.2
16,FSQG,≤ 0.2
17,QKPW,≤ 0.2
18,QQWV,≤ 0.2
19,ATQF,≤ 0.2
20,WQCG,≤ 0.2
21,MLQS,≤ 0.2
22,AFFT,≤ 0.2
23,HDCG,≤ 0.2
24,MTNC,≤ 0.2

row,Variant,one-hybrid fitness for binding parS DNA
1,DQAY,≤ 0.2
2,PGEW,≤ 0.2
3,LPFK,≤ 0.2
4,WTCT,≤ 0.2
5,MTSM,≤ 0.2
6,WRMR,≤ 0.2
7,CQHG,≤ 0.2
8,ITFK,≤ 0.2
9,KYND,≤ 0.2
10,EHPQ,≤ 0.2
11,LQPK,≤ 0.2
12,DRRD,≤ 0.2
13,SRVQ,≤ 0.2
14,AVIG,≤ 0.2
15,LDDV,≤ 0.2
16,LPPR,≤ 0.2
17,TTGM,≤ 0.2
18,RNCW,≤ 0.2
19,LRDA,≤ 0.2
20,SAAC,≤ 0.2
21,QELL,≤ 0.2
22,TILS,≤ 0.2
23,AIPY,≤ 0.2
24,HVKK,≤ 0.2

row,Variant,one-hybrid fitness for binding parS DNA
1,AYPG,≤ 0.2
2,NTWR,≤ 0.2
3,SHIV,≤ 0.2
4,YHGP,≤ 0.2
5,EMAW,≤ 0.2
6,VAQG,≤ 0.2
7,LQRT,≤ 0.2
8,RPDG,≤ 0.2
9,HNEG,≤ 0.2
10,IVGL,≤ 0.2
11,VMYD,≤ 0.2
12,PDAS,≤ 0.2
13,LNCG,≤ 0.2
14,KHRG,≤ 0.2
15,NWRL,≤ 0.2
16,PGMN,≤ 0.2
17,RPMD,≤ 0.2
18,ESLD,≤ 0.2
19,SGNS,≤ 0.2
20,MQNP,≤ 0.2
21,RLGI,≤ 0.2
22,ARCE,≤ 0.2
23,TPNA,≤ 0.2
24,CRCK,≤ 0.2

row,Variant,one-hybrid fitness for binding parS DNA
1,NNPG,≤ 0.2
2,CASG,≤ 0.2
3,ARPW,≤ 0.2
4,ACHS,≤ 0.2
5,QPCR,≤ 0.2
6,SVQS,≤ 0.2
7,QAEN,≤ 0.2
8,RTTH,0.232
9,MTVR,≤ 0.2
10,WAEV,≤ 0.2
11,YSKC,≤ 0.2
12,MNSV,≤ 0.2
13,GAEW,≤ 0.2
14,PRQI,≤ 0.2
15,TYVK,≤ 0.2
16,PHHK,≤ 0.2
17,APVT,≤ 0.2
18,GVYI,≤ 0.2
19,HTNA,≤ 0.2
20,YSEM,≤ 0.2
21,QMCP,≤ 0.2
22,IPMT,≤ 0.2
23,IYHS,≤ 0.2
24,QNTY,≤ 0.2

row,Variant,one-hybrid fitness for binding parS DNA
1,RAWM,0.35
2,FLWG,≤ 0.2
3,RSSL,≤ 0.2
4,LWTR,≤ 0.2
5,EPVN,≤ 0.2
6,HTSL,≤ 0.2
7,RWWR,≤ 0.2
8,RDIT,≤ 0.2
9,NSFV,≤ 0.2
10,NPKI,≤ 0.2
11,KRGN,≤ 0.2
12,DPIT,≤ 0.2
13,KILS,≤ 0.2
14,TQCK,≤ 0.2
15,ACDR,≤ 0.2
16,STQW,≤ 0.2
17,QGLS,≤ 0.2
18,VQRR,≤ 0.2
